Measured values as given in US20220348651A1, “ENTPD2 ANTIBODIES, COMBINATION THERAPIES, AND METHODS OF USING THE ANTIBODIES AND COMBINATION THERAPIES” (Novartis AG, priority 2019, published 2022).
Changes are numbered by the printed parent chain. Values belong to the molecule of their own block, whether it stands above or below them.

How the values were obtained:
[1] = target: T1, Human ENTPD1 (Homo sapiens, UniProt P49961); assay: Cross reactivity: FACS binding to human ENTPD1 expressing NIH/3T3 cells; conditions: NIH/3T3-ENTPD1 cells, 50 nM antibody
T1 construct: expressed in transfected cells; host or cells: NIH/3T3 (retroviral transduction, FACS-sorted)
T1 sequence (P49961 1-510): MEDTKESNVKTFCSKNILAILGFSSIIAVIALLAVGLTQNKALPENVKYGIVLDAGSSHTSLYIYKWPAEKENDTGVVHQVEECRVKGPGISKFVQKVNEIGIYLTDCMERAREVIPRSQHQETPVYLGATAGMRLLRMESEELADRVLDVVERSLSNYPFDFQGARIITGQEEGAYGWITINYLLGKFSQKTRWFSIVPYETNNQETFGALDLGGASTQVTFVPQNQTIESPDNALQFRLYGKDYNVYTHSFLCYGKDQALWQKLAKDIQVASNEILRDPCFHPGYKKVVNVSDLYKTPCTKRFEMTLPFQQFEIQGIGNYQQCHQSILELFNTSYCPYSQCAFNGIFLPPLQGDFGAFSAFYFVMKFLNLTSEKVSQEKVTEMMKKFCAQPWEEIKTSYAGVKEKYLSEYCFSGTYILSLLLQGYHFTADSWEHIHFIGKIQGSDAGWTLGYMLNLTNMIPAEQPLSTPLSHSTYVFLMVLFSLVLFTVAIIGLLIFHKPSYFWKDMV
Protocol: (§1) FACS screening: Specific binding of candidate antibodies to endogenously expressed ENTPD2 was assessed by flow cytometry. Cells were rinsed thoroughly with 1×PBS and treated with Accutase (Millipore #SCR005) to lift from growth plates and resuspended at approximately 1×10^5 cells/90 μL in 1× FACS buffer (2% FBS+0.1% NaN3 in PBS). In a 96-well U-bottom plate, 10 μL of 10× antibody solution in FACS buffer was pre-seeded and 90 μL of cell suspension was added. Cell were incubated for 30 minutes at 4° C., washed 1× with cold PBS and resuspended in 100 μL of 1:500 secondary antibody 1× FACS buffer (Allophycocyanin conjugated F(ab′)2 goat anti-human IgG, Fcγ specific; Jackson Immunoresearch, Cat#109-136-098). After additional incubation for 15 min at 4° C., cells were washed twice with PBS and resuspended in 100 μL of 1×FACS buffer with 4 μg/mL propidium iodide (Life Technologies, Cat#P3566). Geometric mean fluorescence intensity was calculated on live single cells using FlowJo software.
(§2) Cross reactivity Human ENTPD1 (NP_001767) expressing NIH/3T3 cells were generated using a retroviral transduction approach. 72 hrs post transduction, engineered cells were stained with the anti-Human CD39/ENTPD1 APC-conjugated Antibody (R&D systems, Minneapolis, Minn.) and live cells that expressed human ENTPD1 were separated from the rest of the population via fluorescence activated cell sorting. […]

[2] = tested on: H520 cells; assay: Cross reactivity: FACS binding to H520 cells (ENTPD3 and ENTPD8 expression); design: species or system human; conditions: 50 nM antibody
Protocol: as §1
H520 cells were identified as a cancer cell line with ENTPD3 (Ct 25) and ENTPD8 (Ct 26) expression by Taqman and were used for selectivity screening.

[3] = tested on: NIH/3T3 cells; assay: Cross reactivity: FACS binding to NIH/3T3 control cells; conditions: 50 nM antibody
Protocol: as §1, §2

- Apparent FACS binding at 50 nM [1]: No binding
B1: ANTI-HUMAN ENTPD2 MAB4 (antibody)
heavy: QIQLQESGPGLVKPSQTLSLTCTVSGYSITSGYYWNWIRQHPGKGLEWIGYISYDADNNYNPSLKNRVTISRDTSKNQFSLKLSSVTAADTAVYYCAGGYYRYGLGSYRGSYYYVMDYWGQGTTVTVSSASTKGPSVFPLAPSSKSTSGGTAALGCLVKDYFPEPVTVSWNSGALTSGVHTFPAVLQSSGLYSLSSVVTVPSSSLGTQTYICNVNHKPSNTKVDKRV[here human IgG1 Fc without letters]
light: ETVLTQSPATLSVSPGERATISCKASQSVDYEGHSYMNWYQQKPGQAPRLLIYAASNLESGIPARFSGSGSGTDFTLTISSVEPEDAATYYCQQSNEDPPTFGGGTKLEIKRTVAAPSVFIFPPSDEQLKSGTASVVCLLNNFYPREAKVQWKVDNALQSGNSQESVTEQDSKDSTYSLSSTLTLSKADYEKHKVYACEVTHQGLSSPVTKSFNRGEC
- Apparent FACS binding at 50 nM [2]: No binding
- Apparent FACS binding at 50 nM [3]: No binding

- Apparent FACS binding at 50 nM [1]: No binding
B2: ANTI-HUMAN ENTPD2 MAB5 (antibody)
heavy: B1 heavy
light: B1 light with E32D, H34N
- Apparent FACS binding at 50 nM [2]: No binding
- Apparent FACS binding at 50 nM [3]: No binding
